# Laboratory results taken from PubChem BioAssay AID686978 (National Center for Advancing Translational Sciences (NCATS), 2013).
# The whole screen tested about 420,000 compounds, of which about 64,000 (15%) were called active. Inconclusive results, whose numbers are uncertain, are shown with a selection of clear calls. Calls follow the shape of the dose curve; as a rule, active = well fitted inhibition curve with a large enough effect; inconclusive = small, poorly fitted or top-dose-only effect; inactive = flat fitted curve, though single readings scatter. No potency is given beside an inconclusive call; the fits are too rough.
# Experiment: qHTS for Inhibitors of human tyrosyl-DNA phosphodiesterase 1 (TDP1): qHTS in cells in absence of CPT; also: nearly all actives have a fitted effect of over 55% in size
# Settings: DT40 Tdp1-/- hTDP1 cells, no CPT, ATP luminescence, 48 h; activity change, negative = growth inhibition: at 46.2 µM (top of the series) unless noted
# Procedure, shortened: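 No-CPT arm: Tdp1-/-;hTDP1 DT40 cells (400/well) plus compounds, incubated ≥48 hr at 37 °C. Readout CellTiter-Glo luminescence.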
# % is scaled to controls: 0 for no effect and ±100 for the full control effect; potency is read from the fitted curve at half-maximal effect; tags tell the direction and shape of the fitted curve.
Structure (SMILES),Potency,"activity change, negative = growth inhibition"
COc1ccc(C(CC(=O)Nc2cc(Cl)c(OC)cc2OC)N2Cc3ccccc3C2=O)cc1 (stereo not given),"inconclusive [inhibitor, partial curve]",
Cc1c(C)n(CCCN(C)C)c2ncnc(Nc3ccccc3)c12,,inactive: 23.1%
CC(C)CN(CC(C)C)C(=O)c1cc2c(=O)n3ccccc3nc2s1,"inconclusive [inhibitor, single point]",
Cn1c(COc2ccccc2Br)nc2ccccc21,"inconclusive [inhibitor, single point]",
Cc1ccc(-c2cnc3c(c2)C(=O)N([C@H](C)CO)C[C@@H](C)[C@@H](CN(C)C(=O)Cc2ccccc2)O3)cc1,"inconclusive [inhibitor, single point]",
COc1cc(C2c3[nH]c4ccccc4c3CC3COC(=O)N32)cc(OC)c1O (stereo not given),active: 0.291 µM,
C=CCSC(=S)Nc1c(C)n(C)n(-c2ccccc2)c1=O,"inconclusive [inhibitor, single point]",
CCCCCCOC(=O)c1ccccc1NC(=O)/C=C/C(=O)O,"inconclusive [inhibitor, single point]",
CCc1sc(N(C(=O)Cc2ccccc2)c2ccccc2)nc1-c1ccccc1,"inconclusive [inhibitor, single point]",
O=C(NC(=S)Nc1ccccc1)c1ccc(-c2ccccc2)cc1,active: 18.4 µM,
CCOc1ccc(C(=O)Nc2ccc3nc(Nc4cccc(C(F)(F)F)c4)cc(C)c3c2)cc1OCC,active: 5.17 µM,
COc1ccc([C@H]2C[C@@H](O)[C@H](n3cc(-c4ccc(F)cc4)nn3)CN2CC2CCCCC2)cc1,active: 6.51 µM,
C[C@@H](C[C@H](N)C(=O)O)C(=O)O,,inactive: -22.5%
COC(=O)c1cc(NC(=O)c2cc(C(C)(C)C)nn2Cc2ccc(F)cc2)ccc1N1CCOCC1,active: 18.4 µM,
O=C(c1ccco1)N1CCCC(c2nc3c(nnn3Cc3c(Cl)cccc3Cl)c(=O)[nH]2)C1 (stereo not given),"inconclusive [inhibitor, single point]",
CC(=O)c1sc2nc(-c3ccccc3)cc(C)c2c1N,,inconclusive: -31.4% [inhibitor]
Cc1cccc(S(=O)(=O)N(C)C[C@H]2OCc3cnnn3CCCC(=O)N([C@H](C)CO)C[C@@H]2C)c1,,inconclusive: -8.16% [inhibitor]
COc1ccc(C2CCN(Cc3cccnc3)CC2O)cc1 (stereo not given),,inactive: -12.3%
CC(=O)c1ccc(OCc2cc(C(=O)N3CCN(c4ccccc4)CC3C)no2)cc1 (stereo not given),active: 18.4 µM,
Cc1ccccc1OCC(=O)Nc1c(C(=O)Nc2ccccc2F)oc2ccccc12,,inactive: -18.9%
C=CCSc1nnc2nc3[nH]c4c(C)cccc4c3nn12,"inconclusive [inhibitor, single point]",
CC(=O)N1CCC[C@@]2(CCN(C(c3ccccc3)c3ccccc3)C2)C1,,inactive: -6.91%
CCOC(=O)c1ccc(NS(=O)(=O)c2cc(-c3nnnn3C(C)C)ccc2OC)cc1,,inconclusive: -31% [inhibitor]
CN(C)CCCNC(=O)/C(=C\c1ccc(-c2ccc(Br)cc2)o1)NC(=O)c1ccccc1,active: 11.6 µM,

Structure (SMILES),Potency,"activity change, negative = growth inhibition"
COc1ccc(N2CCN(C(=O)CNC(=O)c3ccc4ccccc4c3)CC2)cc1,,inactive: -1.31%
O=C(c1cc2ccccc2o1)n1nnc2ccccc21,,inactive: -20.1%
CC(=O)N1N=C(c2ccc(Br)cc2)CC1c1cccc([N+](=O)[O-])c1 (stereo not given),"inconclusive [inhibitor, single point]",
CN(C)C(CNC(=O)c1ccc(S(=O)(=O)Nc2cccc(C(F)(F)F)c2)cc1)c1ccco1 (stereo not given),"inconclusive [inhibitor, single point]",
CCN(CC)S(=O)(=O)c1ccc(NC(=O)COC(=O)c2cc(S(=O)(=O)Nc3ccc(OC)cc3)ccc2O)cc1,"inconclusive [inhibitor, partial curve, poor fit]",
Cc1c(Cl)cccc1NC(=O)C1CC(=O)N(C2CCCC2)C1 (stereo not given),,inactive: -6.98%
CC(C)(C)c1ccc(C(=O)N2[C@H](COCc3ccccc3)C=CS2(=O)=O)cc1,"inconclusive [inhibitor, single point]",
CCOc1ccc(NC(=O)N2CC3CCCN3c3ccccc32)cc1 (stereo not given),"inconclusive [inhibitor, single point]",
CN(c1ccccc1)S(=O)(=O)c1cc(C(=O)c2nccn2C)ccc1Cl,active: 16.4 µM,
COc1ccc(/C=C2\SC(=O)N(CCNC(=O)CCS(=O)(=O)c3ccc(C)cc3)C2=O)cc1,active: 20.6 µM,
CCOC(=O)c1[nH]c2c(c1C)C(=O)CC(c1ccc(N(C)C)cc1)C2 (stereo not given),active: 13 µM,
CC(C)c1ccc(NC(=O)C2Cc3c(-c4ccccc4Oc4ccccc4)ccnc3O2)cc1 (stereo not given),"inconclusive [inhibitor, single point]",
COC(=O)c1ccc(CCc2cc(O)ccc2O)cc1,active: 5.17 µM,
CC(C)CC1C(=O)N(Cc2cn(CC3CCCCC3)nn2)CCS(=O)(=O)N1Cc1ccc(-c2ccncc2)cc1 (stereo not given),active: 14.6 µM,
Cc1ccc(N(CC(=O)NCCc2ccccc2)S(=O)(=O)c2c(C)noc2C)cc1,"inconclusive [inhibitor, single point]",
COc1ccc(/C=N/NC(=O)CCc2ccccc2)cc1O,"inconclusive [inhibitor, single point]",
CCC(C)(C)n1nnnc1C(c1cc2cc3c(cc2[nH]c1=O)OCO3)N1CCN(C)CC1 (stereo not given),,inactive: -5.47%
Cc1ccc(C(O)c2ncc(-c3ccccc3C(F)(F)F)[nH]2)cc1F (stereo not given),"inconclusive [inhibitor, single point]",
CCN(CC)c1ccc(C(=O)N/N=C/c2ccccc2OC(F)F)cc1,"inconclusive [inhibitor, single point]",
COc1ccc(C2=NN(S(C)(=O)=O)C(c3ccc4nccnc4c3)C2)cc1 (stereo not given),,inactive: -21%
C#CCOCCOCCOCCNc1nc(N2CCOCC2)nc(N2CCN(C(=O)CCCCCCCCCCNC(=O)[C@@H](CCSC)n3cc(CCO)nn3)CC2)n1,"inconclusive [inhibitor, single point]",
O=C1N(c2ccccc2C(F)(F)F)O[C@]1(c1ccccc1)C1CCCC1,,inactive: -17.7%
COC(=O)c1cnc(N2CCN(c3ccc(OC)cc3)CC2)c2ccccc12,"inconclusive [inhibitor, single point]",
N/C(Cc1ccc(Cl)cc1)=N\OC(=O)c1ccccc1,"inconclusive [inhibitor, single point]",

Structure (SMILES),Potency,"activity change, negative = growth inhibition"
O=C1CCCc2oc3ccc(NS(=O)(=O)c4cccc5cccnc45)cc3c21,active: 23.1 µM,
Cc1ccccc1NS(=O)(=O)c1ccc2[nH]cc(C(=O)NCCc3ccccc3)c(=O)c2c1,"inconclusive [inhibitor, partial curve]",
Cc1cc(C)n(-c2nc3ccccc3nc2Nc2ccc3[nH]c(=O)[nH]c3c2)n1,"inconclusive [inhibitor, single point]",
CCOC(=O)Nc1cccc(Nc2ccccc2)c1,"inconclusive [inhibitor, partial curve]",
CCCSC1=N/C(=C\c2ccc([N+](=O)[O-])o2)C(=O)S1,"inconclusive [inhibitor, single point]",
O=C(O)CSc1cc(C(=O)c2cc(F)ccc2O)cn2c(=O)c3c(-c4ccccc4)csc3nc12,"inconclusive [inhibitor, partial curve]",
Cc1nn(-c2ccccc2)c(C)c1C(=O)Nc1nnc(-c2ccco2)o1,"inconclusive [inhibitor, single point]",
Oc1ccc2ccccc2c1C=Nc1ccccc1Br,,inactive: -25.3%
COc1ccc(-n2c(CN3CCC(C)CC3)nc3ccc([N+](=O)[O-])cc3c2=O)c(OC)c1,"inconclusive [inhibitor, single point]",
COc1cc2c(cc1OC)CN(CC(=O)Nc1ccc(Cl)cc1Cl)CC2,active: 20.6 µM,
OCCN(CCO)c1nc(-c2ccccc2)nc2c1oc1ccccc12,"inconclusive [inhibitor, single point]",
CCCc1cc(=O)oc2cc(OC(C)C(=O)NCCCn3ccnc3)ccc12 (stereo not given),,inactive: 5.26%
CCN(CC(=O)Nc1ccc(NC(C)=O)cc1)C(=O)c1n[nH]c(=O)c2ccccc12,,inactive: -1.76%
O=C(Cc1ccccc1F)Nc1nc(-c2ccc(F)cc2)cs1,active: 5.8 µM,
CC1CCN(CCCCOc2ccccc2Br)CC1,"inconclusive [inhibitor, single point]",
CCN(C)C1CN(Cc2cn(Cc3cccc(C(F)(F)F)c3)nn2)S(=O)(=O)C1 (stereo not given),,inactive: -28.8%
Oc1ccccc1/C=N/Nc1nccnc1Cl,active: 2.91 µM,
CC1CCN(CCCNC(=O)c2cc3c(=O)n(C)c4ccccc4c3n2C)CC1,active: 32.6 µM,
CCc1ccc(C(=O)CSc2nc3cc(S(=O)(=O)N4CCOCC4)ccc3n2CC)cc1,"inconclusive [inhibitor, single point]",
O=C(C1=C[C@@H](c2ccc(Br)cc2)C[C@@H](OCc2ccc(CO)cc2)O1)N1CCN(Cc2ccc3c(c2)OCO3)CC1,active: 18.4 µM,
CCCCc1ccc(NC(=O)CSc2nc3ccccc3nc2N2CCCCC2)cc1,"inconclusive [inhibitor, single point]",
CCOc1ccccc1-c1nc(-c2ccncc2)no1,"inconclusive [inhibitor, partial curve, poor fit]",
